In PubChem BioAssay AID662 (National Center for Advancing Translational Sciences (NCATS), 2007):
The whole screen tested about 71,000 compounds, of which about 1,800 (2.5%) were called active. Inconclusive results, whose numbers are uncertain, are shown with a selection of clear calls. Calls follow the shape of the dose curve; as a rule, active = well fitted activation curve with a large enough effect in the signal ratio, with a control signal flat (not every such curve was filed as active); inconclusive = small, poorly fitted or top-dose-only effect, or effect the other way, or a change in a side signal; inactive = flat fitted curve, though single readings scatter; the % refers to the signal ratio. Potencies of inconclusive entries are doubtful fits and often do not repeat.

assay: Cell signaling CRE-BLA (Fsk stim); conditions: CHO CRE-bla reporter (cAMP response element driving beta-lactamase), forskolin EC10, beta-lactamase ratio; activity change, negative = inhibition: at 38.2 µM (top of the series) unless noted; as to activity change, negative = inhibition: % of control where 0% means no effect
In short: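 CRE-bla CHO cells stimulated with EC10 NKH 477 (water-soluble forskolin) and compound titrations, 3 h at 37C; beta-lactamase read with CCF4 after 2 h at room temperature. Activity from 460/530 nm emission ratio, AC50 values for positive or negative modulation.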
Potency is read from the fitted curve at half-maximal effect; tags tell the direction and shape of the fitted curve.

Compound | activity change, negative = inhibition | Potency
O=C(CSc1nc2c(sc3ccccc32)c(=O)n1Cc1ccco1)NCC1CCCO1 (stereo unspecified) | inconclusive: 66.3% | 
c1ccc(CCc2nn3c(Cn4cnc5ccccc54)nnc3s2)cc1 | inconclusive: -2.07% | 
COc1cccc(CNC(=O)C(CCSC)NS(=O)(=O)c2ccc3c(c2)oc(=O)n3C)c1 (stereo unspecified) | inconclusive: 17.5% | 
CCn1c(-c2ccco2)nc2ccccc21 | inactive: 8.38% | 
O=C(OCc1nnc(-c2ccccc2)o1)c1ccc2ccccc2n1 |  | inconclusive: 7.94 µM [falling, partial curve]
Cc1c(C#N)c(SCC(N)=O)nc2c1CCCC2 | inconclusive: 5.72% | 
CC1CCN(CCc2nc3cc(NS(=O)(=O)c4ccccc4)ccc3n2C)CC1 | inactive: 8.05% | 
Cc1nc2sc3c(c2c(=O)[nH]1)CCCC3 | inconclusive: 9.67% [at 7.6 µM] | 
Cc1ccc(C(CC(=O)c2ccco2)SCCO)cc1 (stereo unspecified) | inactive: -15.8% | 
Cn1c2c(c(=O)n(C)c1=O)CN(Cc1ccc3c(c1)OCO3)CN2 |  | inconclusive: 15.8 µM [rising, single point]
CCc1nc(N[C@@H](Cc2c[nH]c3ccccc23)C(=O)O)c2oc3ccccc3c2n1 |  | inconclusive: 15.8 µM [rising, single point]
CCc1c(C)sc(NC(=O)c2ccco2)c1C(=O)N1CCCCC1 |  | inconclusive: 15.8 µM [rising, partial curve, poor fit]
COc1ccc(N2CCN(C(=O)COc3ccccc3)CC2)cc1 |  | inconclusive: 0.316 µM [rising, partial curve, poor fit]
CCOC(=O)N1CCN(C(=O)CSc2nnc(C3COc4ccccc4O3)o2)CC1 (stereo unspecified) | inactive: -7.74% | 
Cc1ccc(-c2nc(C#N)c(NCCc3ccccn3)o2)cc1 | inactive: 4.23% | 
COc1ccc(-c2csc(/C(C#N)=C(\O)CSc3nccn3C)n2)cc1OC |  | active: 6.31 µM
N#C[C@@H]1[C@@H]2C(=O)N(c3ccc4c(c3)OCCO4)C(=O)[C@@H]2C2c3ccccc3C=CN21 (stereo partly specified) | inconclusive: -4.24% | 
CCN(CCCNC(=O)C1CCN(S(=O)(=O)c2cccc3nonc23)CC1)Cc1ccccc1 | inactive: -19.8% | 
CC(=O)Nc1ccc(S(=O)(=O)NC2=NCN(CCOC(=O)c3ccccc3)CN2)cc1 | inactive: -0.131% | 

Compound | activity change, negative = inhibition | Potency
COC(=O)CSc1nc2nc(C)cc(C)n2n1 | inactive: 3.91% | 
CCOC(=O)c1c(C(=O)OCC)c(C)n(N2C(=O)CSC2=S)c1C | inconclusive: -36.3% | 
CCCn1nnnc1SCC(=O)NCc1cccs1 | inactive: 1.43% | 
CCn1c(CN2CCN(C(=O)c3ccco3)CC2)nc2c1c(=O)n(C)c(=O)n2C | inactive: 28.3% | 
N#Cc1nc(Cc2cccc3ccccc23)oc1NCCN1CCCCC1 |  | inconclusive: 25.1 µM [falling, single point]
COc1cc(NS(=O)(=O)c2ccc(NC(C)=O)cc2)cc(OC)c1 | inconclusive: -22.9% | 
O=c1nc(-c2ccccc2)c2ccccc2[nH]1 | inactive: -3.41% | 
O=C(O)C[C@H](S)C(=O)O | inactive: -0.313% [at 7.6 µM] | 
Cn1c(=O)n(C)c2cc(C(=O)Nc3ccc4c(c3)OCO4)ccc21 |  | inconclusive: 25.1 µM [rising, single point]
CCC(=O)Nc1c(C)ccc2nsnc12 | inconclusive: 10.9% [at 7.6 µM] | 
CCOc1ccc(S(=O)(=O)N(C)c2ccc(OCC(=O)OCc3c(C)noc3C)cc2)cc1 | inconclusive: 14.4% | 
CNCCCN1c2ccccc2CCc2ccccc21 | inconclusive: -0.321% | 
Cc1ccc(S(=O)(=O)Cc2cn3cccnc3n2)cc1 | inactive: 2.36% | 
Cc1ccccc1Cn1c(=N)n(CC(O)c2ccco2)c2ccccc21 (stereo unspecified) |  | inconclusive: 20 µM [rising, single point]
O=C(NCCCc1ccccc1)c1ccccc1O | inconclusive: 28.5% [at 7.6 µM] | 
Cc1sc2ncnc(SCC(=O)c3cccs3)c2c1C | inconclusive: 25.7% | 
CC(c1ccco1)N(C(=O)c1cccs1)c1ccccn1 (stereo unspecified) | inactive: 2% | 
COc1ccc(-c2nnc(SCc3nnc(-c4ccccc4)o3)n2-c2ccccc2)cc1 | inconclusive: 18.2% [at 7.6 µM] | 
CCN(CCNC(=O)C1CCCN(S(=O)(=O)CC)C1)c1ccccc1 (stereo unspecified) | inconclusive: 11.8% | 

Compound | activity change, negative = inhibition | Potency
c1coc(CNc2nc3sc4c(c3c3ncnn23)CCCC4)c1 |  | active: 6.31 µM
Cc1nc(SCC(C)C)[nH]c(=O)c1Cc1ccccc1 | inconclusive: 28.6% | 
Cc1ccc(-c2csc3ncn(-n4c(C)ccc4C)c(=O)c23)o1 |  | inconclusive: 10 µM [rising, partial curve]
CCSCCCC(=O)O | inactive: -4.45% [at 7.6 µM] | 
Cc1nc2cnc(Nc3ccccc3)nc2n(C)c1=O |  | inconclusive: 12.6 µM [rising, partial curve]
N#Cc1cccc(-c2nc(NCc3cccs3)c3ccccc3n2)c1 |  | inconclusive: 10 µM [rising, partial curve]
O=C(Nc1ccc(O)cc1C(=O)O)c1cccc(Br)c1 | inconclusive: 6.99% | 
COc1ccc(CCNC(=O)CCS(=O)(=O)c2ccc3c(c2)CCN3C(C)=O)cc1OC | inconclusive: 10.2% | 
CCOc1ccccc1OCCCC(=O)NC1=NCCS1 | inconclusive: 0.344% | 
O=C(CCN1C(=O)COc2ccccc21)NCc1cccnc1 | inactive: 2.76% | 
CC(=O)NC(CCS(C)(=O)=O)C(=O)Nc1ccc2c(c1)OCO2 (stereo unspecified) | inactive: -2.19% | 
Cn1c(Nn2cnnc2)nc2ccccc21 | inactive: -3.36% | 
COc1ccc2cc(C(c3nnnn3C(C)(C)C)N3CCc4ccccc4C3)c(=O)[nH]c2c1 (stereo unspecified) | inconclusive: 21% | 
COc1ccccc1-n1c(SCC(=O)Nc2ccccc2F)nc2[nH]ncc2c1=O |  | inconclusive: 10 µM [rising, partial curve]
CC(C)(C)c1ccc(-c2nnc3sc(-c4ccncc4)nn23)cc1 | inconclusive: 3.59% | 
Cc1ccc(NC(=O)CSCC(N)=O)cc1C | inconclusive: 18.4% | 
Cc1nnc2sc(-c3cc4ccccc4o3)nn12 |  | inconclusive: 3.16 µM [rising, full curve, poor fit]
Cc1ccc2cc(C#N)c(N3CCCN(S(=O)(=O)c4ccccc4)CC3)nc2c1 |  | inconclusive: 7.94 µM [rising, partial curve]
